# This is one part of the list.
# Key:
# Test in all cases: glycan array binding signal (z-score within array); higher = stronger binding
# Details in all cases: glycan notation: IUPAC condensed, linker removed
# [1] = molecular target: GalNAc3S(b1-4)[Fuc(a1-3)]GlcNAc
# Procedure, shortened: (§1)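 Glycan array binding is given as a within-array Z-score, which can be read as non-binding when negative. The arrays, 3228 of them, came from the Consortium for Functional Glycomics database and were retained only where the protein sequence was available. Z-scores were averaged across arrays of the same protein sequence at different concentrations or buffers and across linkers.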
# GalNAc4S6S(b1-4)GlcNAc = molecular target: GalNAc4S6S(b1-4)GlcNAc
# Procedure, shortened: as §1
# GalNAc6S(b1-4)GlcNAc = molecular target: GalNAc6S(b1-4)GlcNAc
# Procedure, shortened: as §1
# Glc(a1-4)Glc = molecular target: Glc(a1-4)Glc
# Procedure, shortened: as §1
# [2] = molecular target: Glc(a1-4)Glc(a1-4)Glc(a1-4)Glc
# Procedure, shortened: as §1
# Glc(a1-6)Glc(a1-6)Glc = molecular target: Glc(a1-6)Glc(a1-6)Glc
# Procedure, shortened: as §1
# [3] = molecular target: Glc(a1-6)Glc(a1-6)Glc(a1-6)Glc
# Procedure, shortened: as §1
# Glc(b1-4)Glc = molecular target: Glc(b1-4)Glc
# Procedure, shortened: as §1
# Glc(b1-6)Glc = molecular target: Glc(b1-6)Glc
# Procedure, shortened: as §1
# GlcA(b1-3)Gal = molecular target: GlcA(b1-3)Gal
# Procedure, shortened: as §1
# GlcA(b1-3)GlcNAc = molecular target: GlcA(b1-3)GlcNAc
# Procedure, shortened: as §1
# GlcA(b1-6)Gal = molecular target: GlcA(b1-6)Gal
# Procedure, shortened: as §1
# [4] = molecular target: GlcA3S(b1-3)Gal(b1-4)GlcNAc(b1-2)Man
# Procedure, shortened: as §1
# [5] = molecular target: GlcA3S(b1-3)Gal(b1-4)GlcNAc(b1-3)Gal(b1-4)Glc
# Procedure, shortened: as §1
# [6] = molecular target: GlcNAc(a1-3)Gal(b1-4)GlcNAc
# Procedure, shortened: as §1
# [7] = molecular target: GlcNAc(a1-4)Gal(b1-3)GlcNAc
# Procedure, shortened: as §1
# [8] = molecular target: GlcNAc(a1-4)Gal(b1-4)GalNAc
# Procedure, shortened: as §1
# [9] = molecular target: GlcNAc(a1-4)Gal(b1-4)GlcNAc
# Procedure, shortened: as §1
# [10] = molecular target: GlcNAc(a1-4)Gal(b1-4)GlcNAc(b1-3)Gal(b1-4)Glc
# Procedure, shortened: as §1
# [11] = molecular target: GlcNAc(a1-4)Gal(b1-4)GlcNAc(b1-3)Gal(b1-4)GlcNAc
# Procedure, shortened: as §1
# [12] = molecular target: GlcNAc(a1-4)Gal(b1-4)GlcNAc(b1-3)Gal(b1-4)GlcNAc(b1-3)Gal(b1-4)GlcNAc
# Procedure, shortened: as §1
# [13] = molecular target: GlcNAc(a1-4)Gal(b1-4)GlcNAc(b1-3)Gal(b1-4)[Fuc(a1-3)]GlcNAc(b1-3)Gal(b1-4)[Fuc(a1-3)]GlcNAc
# Procedure, shortened: as §1
# [14] = molecular target: GlcNAc(a1-6)Gal(b1-4)GlcNAc
# Procedure, shortened: as §1
# [15] = molecular target: GlcNAc(b1-2)Gal(b1-3)GalNAc
# Procedure, shortened: as §1
# [16] = molecular target: GlcNAc(b1-2)Man(a1-3)[GlcNAc(b1-2)Man(a1-6)]Man(b1-4)GlcNAc(b1-4)GlcNAc
# Procedure, shortened: as §1
# [17] = molecular target: GlcNAc(b1-2)Man(a1-3)[GlcNAc(b1-2)Man(a1-6)]Man(b1-4)GlcNAc(b1-4)[Fuc(a1-6)]GlcNAc
# Procedure, shortened: as §1
# [18] = molecular target: GlcNAc(b1-2)Man(a1-3)[GlcNAc(b1-4)][GlcNAc(b1-2)Man(a1-6)]Man(b1-4)GlcNAc(b1-4)GlcNAc
# Procedure, shortened: as §1
# [19] = molecular target: GlcNAc(b1-2)Man(a1-3)[GlcNAc(b1-4)][GlcNAc(b1-2)Man(a1-6)]Man(b1-4)GlcNAc(b1-4)[Fuc(a1-6)]GlcNAc
# Procedure, shortened: as §1
# [20] = molecular target: GlcNAc(b1-2)[GlcNAc(b1-4)]Man(a1-3)[GlcNAc(b1-2)Man(a1-6)]Man(b1-4)GlcNAc(b1-4)GlcNAc
# Procedure, shortened: as §1
# [21] = molecular target: GlcNAc(b1-2)[GlcNAc(b1-4)]Man(a1-3)[GlcNAc(b1-4)][GlcNAc(b1-2)Man(a1-6)]Man(b1-4)GlcNAc(b1-4)GlcNAc
# Procedure, shortened: as §1
# [22] = molecular target: GlcNAc(b1-2)[GlcNAc(b1-4)]Man(a1-3)[GlcNAc(b1-4)][GlcNAc(b1-2)[GlcNAc(b1-6)]Man(a1-6)]Man(b1-4)GlcNAc(b1-4)GlcNAc
# Procedure, shortened: as §1
# [23] = molecular target: GlcNAc(b1-2)[GlcNAc(b1-4)]Man(a1-3)[GlcNAc(b1-4)][GlcNAc(b1-2)[GlcNAc(b1-6)]Man(a1-6)]Man(b1-4)GlcNAc(b1-4)[Fuc(a1-6)]GlcNAc
# Procedure, shortened: as §1
# [24] = molecular target: GlcNAc(b1-2)[GlcNAc(b1-6)]Man(a1-6)[GlcNAc(b1-2)Man(a1-3)]Man(b1-4)GlcNAc(b1-4)GlcNAc
# Procedure, shortened: as §1
# [25] = molecular target: GlcNAc(b1-2)[GlcNAc(b1-6)]Man(a1-6)[GlcNAc(b1-2)Man(a1-3)]Man(b1-4)GlcNAc(b1-4)[Fuc(a1-6)]GlcNAc
# Procedure, shortened: as §1
# [26] = molecular target: GlcNAc(b1-2)[GlcNAc(b1-6)]Man(a1-6)[GlcNAc(b1-4)][GlcNAc(b1-2)Man(a1-3)]Man(b1-4)GlcNAc(b1-4)GlcNAc
# Procedure, shortened: as §1
# GlcNAc(b1-3)Fuc = molecular target: GlcNAc(b1-3)Fuc
# Procedure, shortened: as §1
# GlcNAc(b1-3)Gal = molecular target: GlcNAc(b1-3)Gal
# Procedure, shortened: as §1
# [27] = molecular target: GlcNAc(b1-3)Gal(b1-3)GalNAc
# Procedure, shortened: as §1
# GlcNAc(b1-3)Gal(b1-4)Glc = molecular target: GlcNAc(b1-3)Gal(b1-4)Glc
# Procedure, shortened: as §1
# [28] = molecular target: GlcNAc(b1-3)Gal(b1-4)GlcNAc
# Procedure, shortened: as §1
# [29] = molecular target: GlcNAc(b1-3)Gal(b1-4)GlcNAc(b1-2)Man(a1-3)[GlcNAc(b1-3)Gal(b1-4)GlcNAc(b1-2)Man(a1-6)]Man(b1-4)GlcNAc(b1-4)GlcNAc
# Procedure, shortened: as §1
# [30] = molecular target: GlcNAc(b1-3)Gal(b1-4)GlcNAc(b1-2)Man(a1-3)[GlcNAc(b1-3)Gal(b1-4)GlcNAc(b1-2)Man(a1-6)]Man(b1-4)GlcNAc(b1-4)[Fuc(a1-6)]GlcNAc
# Procedure, shortened: as §1
# [31] = molecular target: GlcNAc(b1-3)Gal(b1-4)GlcNAc(b1-2)[GlcNAc(b1-3)Gal(b1-4)GlcNAc(b1-6)]Man(a1-6)[GlcNAc(b1-3)Gal(b1-4)GlcNAc(b1-2)Man(a1-3)]Man(b1-4)GlcNAc(b1-4)GlcNAc
# Procedure, shortened: as §1
# [32] = molecular target: GlcNAc(b1-3)Gal(b1-4)GlcNAc(b1-3)Gal(b1-4)GlcNAc
# Procedure, shortened: as §1
# [33] = molecular target: GlcNAc(b1-3)Gal(b1-4)GlcNAc(b1-3)Gal(b1-4)GlcNAc(b1-2)Man(a1-3)[GlcNAc(b1-3)Gal(b1-4)GlcNAc(b1-3)Gal(b1-4)GlcNAc(b1-2)Man(a1-6)]Man(b1-4)GlcNAc(b1-4)GlcNAc
# Procedure, shortened: as §1
binder,measurement,setting,value
"ABA (Agaricus bisporus), Q00022 (protein) MTYTISIRVYQTTPKGFFRPVERTNWKYANGGTWDEVRGEYVLTMGGSGTSGSLRFVSSDTDESFVATFGVHNYKRWCDIVTNLTNEQTALVINQEYYGVPIRDQARENQLTSYNVANAKGRRFAIEYTVTEGDNLKANLIIG",glycan array binding signal (z-score),[1],-0.301
same,glycan array binding signal (z-score),GalNAc4S6S(b1-4)GlcNAc,-0.244
same,glycan array binding signal (z-score),GalNAc6S(b1-4)GlcNAc,-0.285
same,glycan array binding signal (z-score),Glc(a1-4)Glc,-0.183
same,glycan array binding signal (z-score),[2],-0.134
same,glycan array binding signal (z-score),Glc(a1-6)Glc(a1-6)Glc,-0.152
same,glycan array binding signal (z-score),[3],-0.112
same,glycan array binding signal (z-score),Glc(b1-4)Glc,-0.178
same,glycan array binding signal (z-score),Glc(b1-6)Glc,-0.162
same,glycan array binding signal (z-score),GlcA(b1-3)Gal,-0.178
same,glycan array binding signal (z-score),GlcA(b1-3)GlcNAc,-0.26
same,glycan array binding signal (z-score),GlcA(b1-6)Gal,-0.139
same,glycan array binding signal (z-score),[4],-0.275
same,glycan array binding signal (z-score),[5],-0.242
same,glycan array binding signal (z-score),[6],1.95
same,glycan array binding signal (z-score),[7],-0.058
same,glycan array binding signal (z-score),[8],-0.114
same,glycan array binding signal (z-score),[9],0.004
same,glycan array binding signal (z-score),[10],0.348
same,glycan array binding signal (z-score),[11],0.618
same,glycan array binding signal (z-score),[12],1.75
same,glycan array binding signal (z-score),[13],0.224
same,glycan array binding signal (z-score),[14],0.477
same,glycan array binding signal (z-score),[15],-0.248
same,glycan array binding signal (z-score),[16],5.72
same,glycan array binding signal (z-score),[17],1.29
same,glycan array binding signal (z-score),[18],2.54
same,glycan array binding signal (z-score),[19],1.24
same,glycan array binding signal (z-score),[20],1.7
same,glycan array binding signal (z-score),[21],0.283
same,glycan array binding signal (z-score),[22],-0.099
same,glycan array binding signal (z-score),[23],-0.287
same,glycan array binding signal (z-score),[24],2.04
same,glycan array binding signal (z-score),[25],2.45
same,glycan array binding signal (z-score),[26],-0.015
same,glycan array binding signal (z-score),GlcNAc(b1-3)Fuc,-0.174
same,glycan array binding signal (z-score),GlcNAc(b1-3)Gal,-0.207
same,glycan array binding signal (z-score),[27],2.1
same,glycan array binding signal (z-score),GlcNAc(b1-3)Gal(b1-4)Glc,-0.213
same,glycan array binding signal (z-score),[28],-0.103
same,glycan array binding signal (z-score),[29],0.536
same,glycan array binding signal (z-score),[30],1.08
same,glycan array binding signal (z-score),[31],-0.234
same,glycan array binding signal (z-score),[32],0.001
same,glycan array binding signal (z-score),[33],2.15

# Source: the supplement of paper PMC8728848
